Laboratory results published in the supplement of paper PMC12578646, “Prodrug florfenicol amine is activated by intrinsic resistance to target Mycobacterium abscessus” (Nature Microbiology, 2025).
± gives the standard deviation of the averaged measurements. M. abscessus ATCC 19977 and its deletion, point and complemented mutants after 5 days of drug at 37 °C plus 24 h of resazurin. Growth in % of untreated wells at the dose given (lower = more inhibition); checkerboards give % inhibition (higher = more inhibition); IC50 from the fitted curve (lower = more potent). No active / inactive call. IC50 values come from the same 384-well curves. Growth is not capped and can exceed 100%. The direction of the checkerboard scale is read from the raw signals. Capreomycin is a mixture.

What was measured:
Experiment in all cases: growth relative to untreated wells; higher = more growth (less inhibition)
[1] = test system: Mycobacterium abscessus ATCC 19977 ΔwhiB7
Procedure: (§1)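 384-well two-fold dose series, two replicates; 5 days at 37 °C, then 24 h with resazurin; fluorescence scaled to growth and killed controls.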

[2] = test system: Mycobacterium abscessus ATCC 19977 Δeis2
Procedure: as §1

[3] = test system: Mycobacterium abscessus ATCC 19977 Eis2 Y284*
Procedure: as §1

[4] = test system: Mycobacterium abscessus ATCC 19977 Eis2 Y227D
Procedure: as §1

[5] = test system: Mycobacterium abscessus ATCC 19977 Eis2 T258R
Procedure: as §1

[6] = test system: Mycobacterium abscessus ATCC 19977 WhiB7 F24fs
Procedure: as §1

[7] = test system: Mycobacterium abscessus ATCC 19977 Eis2 E120fs
Procedure: as §1

[8] = test system: Mycobacterium abscessus ATCC 19977 Eis2 Y255*
Procedure: as §1

[9] = test system: Mycobacterium abscessus ATCC 19977 WhiB7 A51T
Procedure: as §1

[10] = test system: Mycobacterium abscessus ATCC 19977 WhiB7 L37P
Procedure: as §1

[11] = test system: Mycobacterium abscessus ATCC 19977 WhiB7 T70fs
Procedure: as §1

[12] = test system: Mycobacterium abscessus ATCC 19977
Procedure: as §1

CS(=O)(=O)c1ccc([C@@H](O)[C@@H](CO)NC(=O)C(Cl)Cl)cc1 [thiamphenicol]
Settings | growth [%]
[1], 0.5 µg/mL | 108 ± 1.9
[1], 1 µg/mL | 105.4 ± 0.72
[1], 2 µg/mL | 98.3 ± 9.4
[1], 4 µg/mL | 108 ± 9.4
[1], 8 µg/mL | 110 ± 6.6
[1], 16 µg/mL | 122 ± 5.2
[1], 32 µg/mL | 74.9 ± 7.8
[1], 64 µg/mL | 15 ± 4.1
[1], 128 µg/mL | 1.16 ± 4.8
[1], 256 µg/mL | -1.52 ± 2.2
[1], 512 µg/mL | -3.09 ± 4.3
[1], 1024 µg/mL | -3.09 ± 4.2
[2], 0.5 µg/mL | 99.1 ± 2.2
[2], 1 µg/mL | 99 ± 0.81
[2], 2 µg/mL | 98.4 ± 5
[2], 4 µg/mL | 102 ± 1.4
[2], 8 µg/mL | 96.4 ± 6.2
[2], 16 µg/mL | 100.4 ± 0.83
[2], 32 µg/mL | 96.8 ± 0.37
[2], 64 µg/mL | 102 ± 6.2
[2], 128 µg/mL | 105 ± 2.5
[2], 256 µg/mL | 87.2 ± 7.8
[2], 512 µg/mL | 55.8 ± 3
[2], 1024 µg/mL | 8.06 ± 0.72
[3], 0.5 µg/mL | 103 ± 5.6
[3], 1 µg/mL | 103 ± 5.5
[3], 2 µg/mL | 102 ± 3
[3], 4 µg/mL | 107 ± 4.3
[3], 8 µg/mL | 99.7 ± 4.8
[3], 16 µg/mL | 107.2 ± 0.67
[3], 32 µg/mL | 104 ± 1.4
[3], 64 µg/mL | 108.11 ± 0.093
[3], 128 µg/mL | 116 ± 1.1
[3], 256 µg/mL | 112 ± 4.2
[3], 512 µg/mL | 89.6 ± 9
[3], 1024 µg/mL | 9.04 ± 2.4
[4], 0.5 µg/mL | 106 ± 1.2
[4], 1 µg/mL | 106.2 ± 0.45
[4], 2 µg/mL | 106 ± 3
[4], 4 µg/mL | 114 ± 6.5
[4], 8 µg/mL | 104 ± 2.7
[4], 16 µg/mL | 103 ± 6.1
[4], 32 µg/mL | 108 ± 9.6
[4], 64 µg/mL | 111 ± 2.7
[4], 128 µg/mL | 119 ± 4.7
[4], 256 µg/mL | 118.7 ± 0.68
[4], 512 µg/mL | 117 ± 4.1
[4], 1024 µg/mL | 24.8 ± 1.5
[5], 0.5 µg/mL | 97.3 ± 7.8
[5], 1 µg/mL | 105 ± 5.5
[5], 2 µg/mL | 101 ± 3.9
[5], 4 µg/mL | 109 ± 5
[5], 8 µg/mL | 95.9 ± 3.8
[5], 16 µg/mL | 101 ± 4.5
[5], 32 µg/mL | 103 ± 2.8
[5], 64 µg/mL | 105 ± 2.6
[5], 128 µg/mL | 110 ± 2.5
[5], 256 µg/mL | 87.8 ± 2.6
[5], 512 µg/mL | 56.1 ± 13
[5], 1024 µg/mL | 5.99 ± 0.34
[6], 0.5 µg/mL | 105.5 ± 0.56
[6], 1 µg/mL | 113 ± 6.9
[6], 2 µg/mL | 102 ± 6.6
[6], 4 µg/mL | 111.2 ± 0.92
[6], 8 µg/mL | 108 ± 7.5
[6], 16 µg/mL | 117 ± 3.6
[6], 32 µg/mL | 18.8 ± 6.8
[6], 64 µg/mL | 3 ± 0.68
[6], 128 µg/mL | -0.477 ± 0.15
[6], 256 µg/mL | -1.45 ± 0.15
[6], 512 µg/mL | -1.2 ± 0.27
[6], 1024 µg/mL | -0.734 ± 0.07
[7], 0.5 µg/mL | 105 ± 4.7
[7], 1 µg/mL | 108.7 ± 0.98
[7], 2 µg/mL | 112.9 ± 0.43
[7], 4 µg/mL | 110 ± 3.8
[7], 8 µg/mL | 105 ± 1.1
[7], 16 µg/mL | 112 ± 2.7
[7], 32 µg/mL | 114 ± 4.1
[7], 64 µg/mL | 114 ± 1.9
[7], 128 µg/mL | 122 ± 6.7
[7], 256 µg/mL | 116 ± 2.9
[7], 512 µg/mL | 121 ± 3.7
[7], 1024 µg/mL | 22.2 ± 9.7
[8], 0.5 µg/mL | 106 ± 4.2
[8], 1 µg/mL | 102 ± 6.7
[8], 2 µg/mL | 98.8 ± 8.4
[8], 4 µg/mL | 107.7 ± 0.68
[8], 8 µg/mL | 99.79 ± 0.73
[8], 16 µg/mL | 108 ± 3.7
[8], 32 µg/mL | 104 ± 5.1
[8], 64 µg/mL | 113 ± 1.8
[8], 128 µg/mL | 116 ± 6.1
[8], 256 µg/mL | 117 ± 4.9
[8], 512 µg/mL | 103 ± 9.1
[8], 1024 µg/mL | 13.5 ± 3.3
[9], 0.5 µg/mL | 105 ± 8.8
[9], 1 µg/mL | 110 ± 7.3
[9], 2 µg/mL | 108 ± 11
[9], 4 µg/mL | 117 ± 3.7
[9], 8 µg/mL | 113 ± 6
[9], 16 µg/mL | 124.5 ± 0.48
[9], 32 µg/mL | 44.3 ± 20
[9], 64 µg/mL | 12.4 ± 9.9
[9], 128 µg/mL | 0.413 ± 2.3
[9], 256 µg/mL | -1.66 ± 0.55
[9], 512 µg/mL | -1.59 ± 0.89
[9], 1024 µg/mL | -0.972 ± 0.69
[10], 0.5 µg/mL | 115 ± 1.5
[10], 1 µg/mL | 105 ± 1
[10], 2 µg/mL | 93.3 ± 29
[10], 4 µg/mL | 110.2 ± 0.45
[10], 8 µg/mL | 109 ± 1.9
[10], 16 µg/mL | 119 ± 2.3
[10], 32 µg/mL | 39.9 ± 16
[10], 64 µg/mL | 5.01 ± 0.13
[10], 128 µg/mL | -0.0304 ± 0.2
[10], 256 µg/mL | -1.14 ± 0.47
[10], 512 µg/mL | -1.2 ± 0.083
[10], 1024 µg/mL | -1.01 ± 0.83
[11], 0.5 µg/mL | 104.3 ± 0.98
[11], 1 µg/mL | 106 ± 0.61
[11], 2 µg/mL | 94.2 ± 2.7
[11], 4 µg/mL | 105 ± 4.7
[11], 8 µg/mL | 100 ± 2.9
[11], 16 µg/mL | 116.8 ± 1.1
[11], 32 µg/mL | 27.7 ± 10
[11], 64 µg/mL | 5.69 ± 5.7
[11], 128 µg/mL | -2.96 ± 0.65
[11], 256 µg/mL | -3.31 ± 1.1
[11], 512 µg/mL | -3.29 ± 1.1
[11], 1024 µg/mL | -3.22 ± 1.1
[12], 0.5 µg/mL | 97 ± 1.9
[12], 1 µg/mL | 107 ± 6.5
[12], 2 µg/mL | 106 ± 2.5
[12], 4 µg/mL | 106.8 ± 0.53
[12], 8 µg/mL | 99.1 ± 7.4
[12], 16 µg/mL | 106.9 ± 0.64
[12], 32 µg/mL | 96.9 ± 7.6
[12], 64 µg/mL | 108 ± 2.6
[12], 128 µg/mL | 115 ± 2.5
[12], 256 µg/mL | 71.2 ± 7.3
[12], 512 µg/mL | 46.62 ± 0.21
[12], 1024 µg/mL | 5.53 ± 2.3
